In PubChem BioAssay AID1478 (National Center for Advancing Translational Sciences (NCATS), 2009):
Screen size: about 200,000 compounds; about 860 (0.43%) were called active. This list was built around the results that the source calls inconclusive (neither active nor inactive); the mix of calls is not that of the screen. The call rests on the fitted dose curve; in most records, active means well fitted inhibition curve with a large enough effect; inconclusive means small, poorly fitted or top-dose-only effect; inactive means flat fitted curve, though single readings scatter. A potency beside an inconclusive call is a rough fit, not a confirmed value.

What follows are molecules tested against Cruzipain (Trypanosoma cruzi) (UniProt P25779) (assay: qHTS Assay for Promiscuous and Specific Inhibitors of Cruzain (with detergent)). Conditions: purified cruzain, Z-FR-AMC fluorescence, 0.01% Triton.
Sequence of UniProt P25779 (P25779 whole entry, looked up): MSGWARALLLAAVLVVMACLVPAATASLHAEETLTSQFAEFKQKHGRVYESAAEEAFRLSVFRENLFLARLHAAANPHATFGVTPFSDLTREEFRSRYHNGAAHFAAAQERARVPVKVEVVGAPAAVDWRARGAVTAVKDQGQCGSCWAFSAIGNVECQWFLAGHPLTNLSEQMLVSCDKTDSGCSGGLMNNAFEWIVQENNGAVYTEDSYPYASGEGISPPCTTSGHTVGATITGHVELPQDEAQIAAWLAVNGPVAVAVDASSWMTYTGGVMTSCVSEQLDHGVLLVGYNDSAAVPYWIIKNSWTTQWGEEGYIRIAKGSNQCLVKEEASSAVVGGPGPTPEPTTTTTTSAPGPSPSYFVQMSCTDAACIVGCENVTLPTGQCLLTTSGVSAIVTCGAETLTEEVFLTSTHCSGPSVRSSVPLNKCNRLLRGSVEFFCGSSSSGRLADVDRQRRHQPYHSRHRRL
Method in brief: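 Z-FR-AMC hydrolysis (2 uM substrate) by cruzain (1.5 nM) monitored kinetically at ex 360/em 450 nm after 15 min room-temperature compound exposure; 0.01% Triton X-100, pH 5.5, 5 mM DTT.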
Further: nearly all actives have a fitted effect of over 40% in size.
Potency means the concentration at half of the fitted maximal effect; tags describe the fitted curve by direction and shape.
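Wherever max response, negative = inhibition is given: plate controls were neutral wells for no effect and buffer without enzyme for full effect.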

Compound	Potency	max response, negative = inhibition
CN1CCN(c2ncc3nc(-c4cccc(C#N)c4)c(=O)n(C)c3n2)CC1	active: 17.8 µM	
COc1ccc(CN(CCC(c2ccccc2)c2ccco2)C(=O)c2ccco2)cc1 (stereo not drawn)	inconclusive: 28.2 µM [inhibitor, single point]	
O=C(c1cccc(N2C(=O)C3CC=CCC3C2=O)c1)N1CCN(c2ccccc2)CC1 (stereo not drawn)	active: 22.4 µM	
O=C(c1ccc(Cl)c([N+](=O)[O-])c1)N(c1ccccn1)c1ccccn1		inactive: 1.53%
Cc1c2cnn(CC(=O)NCCc3ccccc3)c(=O)c2c(C)n1Cc1ccccc1Cl		inactive: -4.48%
CCC(CC)C(=O)NCCc1cc2cc(C)c(C)cc2[nH]c1=O		inactive: 3.61%
Cc1cc(N)ccc1N1CCCC1	inconclusive: 39.8 µM [inhibitor, single point]	
COC(=O)c1cc(Cl)c(NC(=O)/C=C/c2ccc(OC)c(OC)c2)cc1OC	inconclusive: 31.6 µM [inhibitor, single point]	
COc1ccc(N=Cc2nc(-c3ccccc3)oc2OC(=O)c2ccccc2)cc1	active: 10 µM	
O=C(c1ccc(COc2c(F)c(F)c(F)c(F)c2F)o1)N1CCN(Cc2ccc3c(c2)OCO3)CC1	active: 28.2 µM	
Cc1ccccc1C(=O)Nc1nnc(SCc2cc(=O)n3ccccc3n2)s1		inactive: 2.45%
O=C(Nc1ccc(F)cc1F)c1ccc(-n2cnc3cccnc32)cc1		inactive: -3.29%
CSCCC(NC(=O)c1ccc(Cl)cc1)C(=O)OCC(=O)Nc1ccc(C#N)cc1 (stereo not drawn)	inconclusive: 25.1 µM [inhibitor, single point]	
CCCCn1c(N)c(C(=O)OCC2CCCO2)c2nc3ccccc3nc21 (stereo not drawn)	inconclusive: 39.8 µM [inhibitor, single point]	
O=C(COC(=O)CNC(=O)c1cccc([N+](=O)[O-])c1)Nc1cccc(S(=O)(=O)N2CCCCC2)c1	inconclusive: 17.8 µM [inhibitor, partial curve]	
O=C(CSc1ccc(-c2ccc(Cl)cc2)nn1)Nc1ccc2c(c1)OCCO2	inconclusive: 1 µM [inhibitor, single point]	
Cc1ccc(NC(=O)CC2Nc3ccccc3NC2=O)cc1Cl (stereo not drawn)	inconclusive: 20 µM [inhibitor, single point]	
Oc1ccc(O)c2c(O)cccc12	inconclusive: 25.1 µM [inhibitor, partial curve, poor fit]	
CCN1C(=O)C(=C/C=C/c2ccco2)C(=O)N(CC)C1=S	inconclusive: 25.1 µM [inhibitor, single point]	
CN(c1ccccc1)c1ccc(/C=C(\CCC(=O)O)c2nc3ccccc3s2)cc1[N+](=O)[O-]	inconclusive: 28.2 µM [inhibitor, single point]	
COc1ccc2cc(/C=N/NC(=O)CN(c3ccccc3C)S(=O)(=O)c3ccccc3)c(Cl)nc2c1	inconclusive: 22.4 µM [inhibitor, single point]	
COc1ccc(OC)c(C2C(C(=O)Nc3nc4ccccc4s3)=C(C)NC3=C2C(=O)CCC3)c1 (stereo not drawn)	inconclusive: 39.8 µM [inhibitor, single point]	

Compound	Potency	max response, negative = inhibition
CN1CCN(c2ncc3ncc(=O)n(C[C@H]4CCCO4)c3n2)CC1	inconclusive: 39.8 µM [inhibitor, single point]	
O=c1ccsn1Cc1ccccc1	inconclusive: 39.8 µM [inhibitor, single point]	
CN1CCN(C2=C(Cl)C(=O)N(c3ccc(Cl)cc3)C2=O)CC1	inconclusive: 31.6 µM [inhibitor, single point]	
Cc1cccc(N2CCN(C3=NC(=O)C(Cc4ccccc4)S3)CC2)c1 (stereo not drawn)	inconclusive: 35.5 µM [inhibitor, single point]	
CC(C)c1ccc(C2CC(=O)N3CN(C4CCCCC4)CSC3=C2C#N)cc1 (stereo not drawn)	inconclusive: 22.4 µM [inhibitor, single point]	
Nc1ccc2nc(-c3ccc(N)c(Cl)c3)[nH]c2c1	inconclusive: 31.6 µM [inhibitor, single point]	
CCOc1ccc(NC(=O)c2ccc(NC(=O)c3cn4c5c(c(N6CCN(C)CC6)c(F)cc5c3=O)OCC4C)cc2)cc1 (stereo not drawn)	inconclusive: 25.1 µM [inhibitor, single point]	
Cc1sc(NC(=O)COc2ccccc2)c(C#N)c1-c1ccccc1	inconclusive: 28.2 µM [inhibitor, single point]	
CCOc1ccc(-c2nnc(SCC(=O)Nc3ccc(C)cc3Cl)o2)cc1	active: 28.2 µM	
O=c1c(C(c2ccccc2)c2c(O)sc3ccccc3c2=O)c(O)sc2ccccc12	active: 25.1 µM	
COc1ccc(/C=N/N2C(=O)c3ccccc3C2=O)cc1		inactive: 0.0095%
COc1cc(/C=C2/N=C(C3CCCCC3)OC2=O)cc(OC)c1OC	active: 2.51 µM	
NC(CCC(=O)NCS(=O)(=O)O)C(=O)O (stereo not drawn)		inactive: -4.08%
O=C1/C(=C\c2ccco2)CCC/C1=C\c1ccco1	inconclusive: 31.6 µM [inhibitor, single point]	
Cc1noc2nc(-c3cccs3)cc(-c3nnc4n3CCCCC4)c12	inconclusive: 31.6 µM [inhibitor, single point]	
O=c1c2c3c(sc2nc2n1CCCS2)CCCC3	inconclusive: 35.5 µM [inhibitor, single point]	
O=C(CSc1ncc(S(=O)(=O)c2ccc(Cl)cc2)c(=O)[nH]1)Nc1cccc(C(F)(F)F)c1	inconclusive: 25.1 µM [inhibitor, single point]	
CC(C)(C)C1CCc2c(sc(NC(=O)CCC(=O)O)c2C(=O)Nc2ccccc2C(F)(F)F)C1 (stereo not drawn)	inconclusive: 14.1 µM [inhibitor, partial curve]	
Oc1ccc(/C=N/NC(=S)NCC2CCCO2)cc1 (stereo not drawn)	inconclusive: 15.8 µM [inhibitor, partial curve]	
C[CH2][Hg][S]c1ccccc1C(=O)O	inconclusive: 22.4 µM [inhibitor, single point]	
COC(=O)c1ccc(COc2ccc3c(C)c(C)c(=O)oc3c2)o1	inconclusive: 28.2 µM [inhibitor, single point]	
